Among all 420,000 compounds or so, about 50,000 (12%) were called active. Inconclusive results, whose numbers are uncertain, are shown with a selection of clear calls. Calls come from the whole dose curve; as a rule, active = well fitted inhibition curve with a large enough effect; inconclusive = small, poorly fitted or top-dose-only effect; inactive = flat fitted curve, though single readings scatter. Potencies of inconclusive entries are left out as doubtful fits.
Experiment: qHTS for Inhibitors of human tyrosyl-DNA phosphodiesterase 1 (TDP1): qHTS in cells in presence of CPT; note: nearly all actives have a fitted effect of over 55% in size
Conditions: chicken DT40 Tdp1-/-;hTDP1 cells + 20 nM CPT, ATP luminescence, 48 h; activity change, negative = growth inhibition: at 46.2 µM (top of the series)
How it was run: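 Chicken DT40 Tdp1-/- cells complemented with human TDP1, 400 cells/well, exposed to compounds plus 20 nM camptothecin for at least 48 h at 37 C; viability read as ATP content by CellTiter-Glo luminescence.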
In the case of `COc1cccc(Cn2c(=O)n(-c3ccc(Br)cc3F)c(=O)c3sc4ccccc4c32)c1`, the Potency is reported as active: 9.2 µM.
For `CC(C)CC(CO)N1CCN(C(=O)c2ccccc2)CCC1=O` (centres undefined), the Potency was “inactive”.
For `CCOC(=O)c1c(-c2ccc(C)cc2C)csc1NC(=O)CSc1nnnn1C`, the Potency was inconclusive [inhibitor, single point].
With `COc1cccc(/C=N/N2C(=O)CSC2=S)c1O` the Potency was inconclusive [inhibitor, partial curve].
In the case of `CCOC(=O)c1ccccc1NC(=S)N1CCN(C2CCCCC2)CC1`, the Potency is reported as “inactive”.
For `Cc1ccc(Sc2nnc(Cc3ccccc3)c3ccccc23)cc1`, the Potency was active: 25.9 µM.
With `CCc1ccc(NC(=O)C(=O)NCC2CCCN2S(=O)(=O)c2cccs2)cc1` (centres undefined) the Potency was active: 18.4 µM.
In the case of `CC(NC(=O)c1cccc(OC2CCN(C3CCN(C)CC3)CC2)c1)c1ccccc1` (centres undefined), the Potency is reported as inconclusive [inhibitor, single point].
With `FC(F)(F)c1ccc(C2[C@H]3CN(Cc4cccnc4)[C@H](c4ccccc4)C34CC2(c2ccccc2)C4)cc1` (some centres undefined) the Potency was active: 18.4 µM.
In the case of `O=C(COc1ccccc1[N+](=O)[O-])NCC1(N2CCOCC2)CCCCC1`, the Potency is reported as inconclusive [inhibitor, single point].
For `COc1ccc(CNc2ncc(-c3ccccc3)n2C)c(OC)c1OC`, the Potency was inconclusive [inhibitor, single point].
In the case of `CC(NCc1ccco1)C(=O)N1CCc2ccccc2C1` (centres undefined), the Potency is reported as “inactive”.
For `COc1ccccc1N1CCN(C2CCCN(C(=O)c3ccsc3)C2)CC1` (centres undefined), the Potency was inconclusive [inhibitor, partial curve].
In the case of `Cc1ccc(NC(=O)CC2Nc3cccc4cccc(c34)NC2=O)cc1` (centres undefined), the Potency is reported as inconclusive [inhibitor, single point].
In the case of `Cc1c([N+](=O)[O-])c([N+](=O)[O-])nn1CC(=O)N1CCCCC1`, the Potency is reported as “inactive”.
With `CC1CCCC(NC(=O)c2cc(-c3ccncc3)nc3ccccc23)C1C` (centres undefined) the Potency was inconclusive [inhibitor, single point].
For `CC(C)Cn1c(-c2csc(C(C)C)c2)n[nH]c1=S`, the Potency was inconclusive [inhibitor, full curve].
With `O=C(O)/C=C/c1ccc2ccccc2n1` the Potency was inconclusive [inhibitor, single point].
For `CN1CCN(c2ccccc2NC(=O)c2ccc(-c3ccc(Br)cc3)o2)CC1`, the Potency was active: 3.26 µM.
In the case of `CCc1nc2c(OCCn3cccc3)cccn2c1N(C=O)Cc1ccc(OC)cc1`, the Potency is reported as active: 20.6 µM.
For `COc1ccc(CCN=C(N)NS(=O)(=O)c2ccccc2)cc1`, the Potency was inconclusive [inhibitor, single point].
With `CC(=O)c1c(C(=O)O)c2ccccc2[nH]c1=O` the Potency was “inactive”.
In the case of `Cc1ccc(Nc2nc(N)c([N+](=O)[O-])c(N3CCC(C)CC3)n2)cc1C`, the Potency is reported as inconclusive [inhibitor, single point].
With `COc1ccc(Br)cc1C1CC(=O)N2CN(C)CSC2=C1C#N` (centres undefined) the Potency was inconclusive [inhibitor, single point].
For `COc1ccc(/C=C(\NC(=O)c2ccc(C)cc2)C(=O)N2CCCCC2)cc1`, the Potency was “inactive”.
For `O=C(NCC1CCCO1)c1ccc(S(=O)(=O)N2CCC(c3nc4ccc(Cl)cc4[nH]3)CC2)cc1` (centres undefined), the Potency was active: 25.9 µM.
In the case of `O=C(CSc1nnc(NC(=O)C2CCC2)s1)Nc1ccccc1F`, the Potency is reported as “inactive”.
With `CCCOc1cccc(C(=O)N(Cc2cc(OC)c(OC)c(OC)c2)C2CCS(=O)(=O)C2)c1` (centres undefined) the Potency was inconclusive [inhibitor, single point].
In the case of `Cn1cnnc1Sc1ccc(C(=O)OCC(=O)NC2CC2)cc1[N+](=O)[O-]`, the activity change, negative = growth inhibition is reported as inconclusive: 6.2% [inhibitor].
For `Cc1ccc2oc(=O)c3cc(C(=O)NCc4ccco4)sc3c2c1`, the Potency was “inactive”.
For `Cc1ccc(C)c(NC(=O)[C@@H]2CCCN2S(=O)(=O)c2ccccc2F)c1`, the Potency was inconclusive [inhibitor, partial curve].
With `CCOC(=O)c1c(NC(=S)Nc2ccccc2)sc2c1CC(C)(C)SC2` the Potency was active: 16.4 µM.
For `O=C1c2ccccc2C(Nc2cccnc2)N1Cc1ccccc1` (centres undefined), the Potency was “inactive”.
For `CCN(CC)c1ccc(/C=N/NC(=O)c2nnn(-c3nonc3N)c2C(C)C)c(O)c1`, the Potency was active: 5.8 µM.
For `CCOC(=O)c1oc2ccccc2c1CSc1nnnn1-c1ccc(C)cc1`, the Potency was inconclusive [inhibitor, single point].
For `CCOc1ccc(NC(=O)CCNC(=O)Cn2cnc3ccccc3c2=O)cc1`, the Potency was “inactive”.
With `COC(=O)c1ccc2nc(-c3ccc(C)cc3)c(Cc3ccsc3)n2c1` the Potency was active: 18.4 µM.
With `Cc1ccc2nc(N(CCCN(C)C)C(=O)c3ccc(Br)s3)sc2c1` the Potency was inconclusive [inhibitor, single point].
In the case of `Nc1ncnc(Nc2cc(Cl)cc(Cl)c2)c1[N+](=O)[O-]`, the Potency is reported as “inactive”.
In the case of `Cc1ccc(CS(=O)(=O)CCC(=O)NCc2ccccc2Cl)cc1`, the Potency is reported as “inactive”.
In the case of `CCCOP(=O)(OCCC)C1(Nc2ccc(C)cc2)CCCCC1`, the Potency is reported as “inactive”.
For `O=C(c1cnn2c(C(F)F)cc(-c3ccccc3)nc12)N1CCc2ccccc21`, the Potency was active: 18.4 µM.
For `CC(=O)NCCNc1ncnc2ccc(-c3ccccc3C(F)(F)F)cc12`, the Potency was inconclusive [inhibitor, single point].
With `Cn1c(-c2ccccc2)c(C(=O)CC#N)c2ccccc21` the Potency was inconclusive [inhibitor, partial curve].
With `O=C(COC(=O)c1cc(S(=O)(=O)N2CCOCC2)ccc1F)Nc1ccccc1C(F)(F)F` the Potency was “inactive”.
For `CC(C)c1ccc(NC(=O)c2cccn2-c2nnc(N3CCCCC3)s2)cc1`, the Potency was active: 18.4 µM.
With `CC(C)OCCCNC(=O)c1c(N)n(/N=C/c2cccs2)c2nc3ccccc3nc12` the Potency was inconclusive [inhibitor, partial curve].
With `O=C(COC(=O)CSc1cc(Cl)ccc1Cl)NCc1ccc2c(c1)OCO2` the Potency was inconclusive [inhibitor, single point].
With `O=C1c2[nH]nc(-c3ccccc3O)c2C(c2cccc(Cl)c2)N1Cc1ccco1` (centres undefined) the Potency was inconclusive [inhibitor, single point].

From PubChem BioAssay AID686979 (National Center for Advancing Translational Sciences (NCATS), 2013)
% is set by controls: 0 for no effect and ±100 for the full control effect; potency is the fitted concentration of half-maximal effect; tags give direction and shape of the fitted curve.
